Test results as given in PMC4336329 (PLoS ONE, 2015).
Out of some 310,000 compounds screened, about 14,000 (4.5%) showed an effect of 50% or more. Effects have a minus sign here. The list shows a part of the results.

biological target: human ether-à-go-go-related gene (hERG) potassium channel (human, UniProt Q12809); experiment: primary screen, population patch clamp on CHO cells stably expressing hERG
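Further: peak tail current of the secondary pulse compared with the same well before compound.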

human ether-à-go-go-related gene (hERG) potassium channel, sequence (Q12809 whole entry, looked up): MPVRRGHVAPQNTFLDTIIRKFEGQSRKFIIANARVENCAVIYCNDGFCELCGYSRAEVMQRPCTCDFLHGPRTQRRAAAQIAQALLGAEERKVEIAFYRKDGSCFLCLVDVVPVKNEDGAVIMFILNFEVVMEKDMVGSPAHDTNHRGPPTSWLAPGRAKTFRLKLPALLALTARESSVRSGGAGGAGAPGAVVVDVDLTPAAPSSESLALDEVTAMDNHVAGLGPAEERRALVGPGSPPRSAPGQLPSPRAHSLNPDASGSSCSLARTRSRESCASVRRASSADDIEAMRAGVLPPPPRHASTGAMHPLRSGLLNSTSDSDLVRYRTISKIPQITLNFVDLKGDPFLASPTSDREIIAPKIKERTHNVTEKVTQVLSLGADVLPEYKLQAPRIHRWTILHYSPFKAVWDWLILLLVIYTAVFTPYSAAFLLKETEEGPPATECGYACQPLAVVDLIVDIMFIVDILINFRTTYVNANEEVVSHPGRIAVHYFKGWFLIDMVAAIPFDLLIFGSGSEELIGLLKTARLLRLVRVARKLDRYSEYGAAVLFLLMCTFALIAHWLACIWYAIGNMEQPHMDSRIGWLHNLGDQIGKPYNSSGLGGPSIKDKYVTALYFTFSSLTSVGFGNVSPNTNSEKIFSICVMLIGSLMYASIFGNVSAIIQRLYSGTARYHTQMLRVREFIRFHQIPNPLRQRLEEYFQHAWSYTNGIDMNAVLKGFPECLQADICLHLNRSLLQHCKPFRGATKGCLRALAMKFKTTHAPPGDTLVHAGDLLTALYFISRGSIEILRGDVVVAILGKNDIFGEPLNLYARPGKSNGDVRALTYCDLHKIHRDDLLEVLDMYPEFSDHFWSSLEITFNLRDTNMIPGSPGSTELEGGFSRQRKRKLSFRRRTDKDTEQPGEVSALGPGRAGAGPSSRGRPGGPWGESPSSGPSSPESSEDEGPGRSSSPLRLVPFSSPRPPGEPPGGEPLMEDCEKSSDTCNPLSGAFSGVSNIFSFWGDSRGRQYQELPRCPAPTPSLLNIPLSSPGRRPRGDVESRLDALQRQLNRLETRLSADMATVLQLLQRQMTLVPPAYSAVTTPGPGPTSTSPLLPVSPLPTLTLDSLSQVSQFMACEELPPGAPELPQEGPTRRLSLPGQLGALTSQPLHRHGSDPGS

| SMILES | hERG current change (%, negative = inhibition) at 10uM [%] |
| --- | --- |
| Cc1ccc(C(=O)Nc2cccc(C(O)c3ccccc3)c2)cc1 (centres unmarked) | 2.87 |
| O=C(O)c1ccc(/C=N/Nc2ccc(F)cc2F)cc1 | 14.6 |
| Cc1ccc(N2C(=O)NC(NS(=O)(=O)c3ccccc3)(C(F)(F)F)C2=O)cc1 (centres unmarked) | 9.26 |
| Cc1ccc(S(=O)(=O)N2CCCc3ccccc32)cc1C | 0.165 |
| COc1cccc(/C=C/C(=O)OCC(=O)NC(=O)NC2CCCCC2)c1 | -2.47 |
| CN1C(=O)Cc2cc(S(=O)(=O)N3CCN(c4ccccc4F)CC3)ccc21 | -2.74 |
| Cn1c(O)c(C=NCCc2c[nH]c3ccccc23)c(=O)n(C)c1=O | -0.616 |
| CC(C)NC(=S)Nc1cccc2cnccc12 | -10.7 |
| CC(C)(C)CC(=O)Nc1ccc(Nc2ccccc2)cc1 | 3.84 |
| CC(=NCCN1CCCCC1)c1c(O)n(-c2ccc(Cl)cc2)c(=O)[nH]c1=O | -0.221 |
| CCOCCCNC(=O)C1CCC(CNS(=O)(=O)c2ccc(OC)cc2)CC1 (centres unmarked) | 6.01 |
| COc1cc(N)c(Cl)cc1C(=O)NC1CN2CCC1CC2.Cl.O (centres unmarked) | -11.1 |
| O=C(NCc1ccccc1F)C1CCCN1S(=O)(=O)c1ccc(F)cc1 (centres unmarked) | 19 |
| CCOc1cc(/C=C2\N=C(C)OC2=O)cc(Br)c1OCCc1ccccc1 | 16.7 |
| CC(=O)c1cccc(N=Cc2c(O)c3ccccc3oc2=O)c1 | 9.35 |
| c1nnc(NC2=NCCCCC2)s1 | 12.2 |
| COC(=O)c1ccc(Cn2nnc3c(=O)[nH]c(C4CCCN(S(=O)(=O)c5ccc(C)cc5)C4)nc32)cc1 (centres unmarked) | 21.3 |
| COc1ccc(C(=O)c2c3ccc([N+](=O)[O-])cc3[n+]([O-])n2CCC[NH3+])cc1.[Cl-] | -47.4 |
| Cc1cccc(N2CCN(C(=O)c3c(C)nn(Cc4ccccc4Cl)c3C)CC2)c1C | -0.851 |
| CCn1c(-c2ccccc2Cl)nn(CC(=O)NCCc2ccccc2)c1=S | 2.03 |
| O=C(c1ccc([N+](=O)[O-])cc1)N(c1ccccn1)c1ccccn1 | 10.9 |
| CCCCn1c(=O)c(C=Nc2ccc(Cl)cc2)c(O)n(Cc2ccco2)c1=O | -12.7 |

| SMILES | hERG current change (%, negative = inhibition) at 10uM [%] |
| --- | --- |
| COc1ccc(/C=C/CN2CCCC(C(=O)c3ccc(OC)c(F)c3)C2)cc1 (centres unmarked) | -94.5 |
| COc1cccc(C(=O)N2CCN(Cc3nc(CC4CC4)no3)CC2)c1 | -5.73 |
| O=C(Nc1ccc(Cl)cn1)c1ccc2[nH]c(=O)c(=O)[nH]c2c1 | 16.9 |
| CC(=O)N(C)c1ccc(NC(=S)Nc2ccccc2)cc1 | 13.8 |
| Cc1nc2sc(C(=O)Nc3ccccc3Cc3ccccc3)c(C)c2c(=O)[nH]1 | 8.96 |
| COc1cc(O)c(CCC(=O)c2cc(OC)c(OC)c(OC)c2)c(OC)c1 | 1.95 |
| CCN(CC)c1ccc2c(Cl)c(Br)c(=O)oc2c1 | 7.17 |
| CCCn1c(SCC(=O)N2c3ccccc3Sc3ccccc32)nc2ccccc21 | 22.5 |
| O=C1CC(c2ccncc2)c2cc3c(cc2N1)OCCO3 (centres unmarked) | 2.23 |
| O=C(NCC1CCCO1)c1ccc(/C=N/O)nc1 (centres unmarked) | 5.34 |
| O=C(NC12CC3CC(CC(C3)C1)C2)c1ccc([N+](=O)[O-])o1 | 16.9 |
| O=C(NN=C1C2CC3CC(C2)CC1C3)c1cccc(S(=O)(=O)N2CCOCC2)c1 | 0.586 |
| COc1ccc(-c2cc(C(F)(F)F)nc(N)n2)cc1 | 11.9 |
| COc1cccc(NC(=O)CSCc2cc(=O)n3nc(C4CC4)sc3n2)c1 | 18.4 |
| S=c1[nH]nc(-c2ccc(Cl)cc2Cl)n1-c1ccc(Cl)cc1 | 18.6 |
| COc1cccc(-c2nc(NCc3ccccc3)c3ccccc3n2)c1O | 14.6 |
| CC(C)C(=O)N1N=C(c2ccc(NS(C)(=O)=O)cc2)CC1c1cccs1 (centres unmarked) | -68.7 |
| CCCCOCCOCCOCCCC | 13.4 |
| Cc1c([N+](=O)[O-])c([N+](=O)[O-])nn1CC(=O)NCCc1ccccc1 | 13.2 |
| CCOC(=O)c1[nH]c2ccccc2c1NC(=O)c1ccco1 | 0.716 |
| Cc1ccc(Nc2nc(N)c3ccccc3n2)cc1C.Cl | -1.59 |
| CC(C)Oc1ccc(CC2(CCc3ccncc3)C(=O)NC(=O)NC2=O)cc1 | 5.71 |
